# Reference: PubChem BioAssay AID588591 (National Center for Advancing Translational Sciences (NCATS), 2011)
# Out of some 390,000 compounds screened, about 4,700 (1.2%) were called active. The inconclusive results got no clear call from the source; some entries with a clear call stand among them for comparison. The call rests on the fitted dose curve; in most records, active means well fitted inhibition curve with a large enough effect; inconclusive means small, poorly fitted or top-dose-only effect, or another doubt; inactive means no such curve, though single readings can be large or run the other way. Where the call is inconclusive, the potency comes from a doubtful curve fit. Where a SMILES comes first, the peptide text is derived from it. Bridges are numbered along the chain shown (N, C = ends). [ ]: non-standard residue; d: D form. The star is where a group is joined. X1 = CCC(C)C(N)C1=NC(C(=O)*)CS1; dOrn = NCCC[C@@H](N)C(=O)O
# Target: DNA polymerase eta (Homo sapiens) (UniProt Q9Y253)
# Chain of UniProt Q9Y253 (Q9Y253 whole entry, looked up): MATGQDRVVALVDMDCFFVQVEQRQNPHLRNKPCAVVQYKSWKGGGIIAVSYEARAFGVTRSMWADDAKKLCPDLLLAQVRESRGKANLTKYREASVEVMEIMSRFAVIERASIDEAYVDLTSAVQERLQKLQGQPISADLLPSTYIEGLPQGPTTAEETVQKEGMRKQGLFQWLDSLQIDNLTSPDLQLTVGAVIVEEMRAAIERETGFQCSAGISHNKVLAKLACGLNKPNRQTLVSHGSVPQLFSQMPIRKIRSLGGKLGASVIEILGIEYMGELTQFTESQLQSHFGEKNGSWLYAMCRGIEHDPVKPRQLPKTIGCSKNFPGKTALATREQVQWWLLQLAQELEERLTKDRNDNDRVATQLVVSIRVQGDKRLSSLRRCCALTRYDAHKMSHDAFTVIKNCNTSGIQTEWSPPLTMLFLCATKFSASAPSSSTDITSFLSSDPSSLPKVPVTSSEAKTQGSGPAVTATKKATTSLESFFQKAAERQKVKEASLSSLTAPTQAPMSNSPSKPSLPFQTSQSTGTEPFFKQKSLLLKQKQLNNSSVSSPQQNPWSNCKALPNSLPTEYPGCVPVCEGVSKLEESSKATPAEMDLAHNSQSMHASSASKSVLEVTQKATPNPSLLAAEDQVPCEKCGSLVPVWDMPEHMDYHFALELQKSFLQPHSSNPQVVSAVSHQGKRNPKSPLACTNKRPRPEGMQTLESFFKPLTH
# Experiment: qHTS for Inhibitors of Polymerase Eta
# Details: recombinant Pol eta, fluorescent DNA replication assay; series mostly up to 114 µM
# How it was run: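 Pol eta at 10 nM preincubated with compounds 15 min at room temperature; reaction started with fluorescent substrate (50 nM final) and read kinetically at 0 and 10 min.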
# Potency means the concentration at half of the fitted maximal effect; tags describe the fitted curve by direction and shape.
row,Compound,Potency
1,O=c1[nH]c(O)c(N=Nc2ccc(Cl)c(S(=O)(=O)Nc3ccccc3Cl)c2)c(=O)[nH]1,inactive
2,CCC(C)C(N)C1=NC(C(=O)N[C@@H](CC(C)C)C(=O)N[C@H](CCC(=O)[O-])C(=O)N[C@H](C(=O)N[C@H]2CCCCNC(=O)[C@H](CC(N)=O)NC(=O)[C@@H](CC(=O)[O-])NC(=O)[C@H](Cc3cnc[nH]3)NC(=O)[C@@H](Cc3ccccc3)NC(=O)[C@H]([C@@H](C)CC)NC(=O)[C@@H](CCCN)NC2=O)[C@@H](C)CC)CS1.[Zn+2] (stereo partly specified) (X1-L[dE]IK[dOrn]I[dF]H[dD]N; lactam 4-C),"inconclusive: 31.6 µM [inhibitor, full curve, poor fit]"
3,CCN1C(=O)N/C(=C/c2ccc(Sc3ccc(C)cc3)o2)C1=O,"inconclusive: 31.6 µM [inhibitor, single point]"
4,COc1cccc(C(=O)/C=C/c2ccc(OCC#N)c(OC)c2)c1,"inconclusive: 35.5 µM [inhibitor, partial curve, poor fit]"
5,CCc1ccc2c(c1)c(=O)c(C(=O)c1ccccc1)cn2CC(=O)Nc1ccc(C)c(Cl)c1,"inconclusive: 89.1 µM [inhibitor, single point]"
6,Cc1ccc(S(=O)(=O)N2CCCCC2)cc1NC(=O)c1ccc(=O)[nH]c1,"inconclusive: 35.5 µM [inhibitor, partial curve, poor fit]"
7,COc1cc(C2c3c(oc4ccccc4c3=O)C(=O)N2c2nccs2)ccc1O (stereo unspecified),active: 79.4 µM
8,CC(=O)NN1C(=O)/C(=C\c2ccc(Br)o2)SC1=S,active: 25.1 µM
9,CCOC(=O)CCCCCC(=O)Nc1ccc2c(c1)CC(=O)N([C@@H](C)CO)C[C@@H](C)[C@@H](CN(C)C(=O)Nc1ccc(C(F)(F)F)cc1)O2,"inconclusive: 10 µM [inhibitor, partial curve, poor fit]"
10,O=C(O)c1cccc(NC(=O)c2cn(-c3ccccc3)nc2-c2cccc(Br)c2)c1,"inconclusive: 56.2 µM [inhibitor, partial curve, poor fit]"
11,O=C(O)CC(NC(=O)Cc1ccc([N+](=O)[O-])cc1)c1ccc2c(c1)OCO2 (stereo unspecified),"inconclusive: 100 µM [inhibitor, single point]"
12,NC1=NN(c2cccc(C(=O)O)c2)C(=O)C1,"inconclusive: 28.2 µM [inhibitor, partial curve, poor fit]"
13,c1ccc(-c2nnc3n2N=C(c2ccc4c(c2)OCO4)CS3)nc1,"inconclusive: 35.5 µM [inhibitor, partial curve, poor fit]"
14,COC(=O)c1ccccc1NCc1cc(=O)oc2cc(O)c(O)cc12,"inconclusive: 3.16 µM [inhibitor, full curve, poor fit]"
15,CC1(C)Cc2c(C#N)c(NCc3ccco3)nc(-c3ccco3)c2CO1,active: 14.1 µM
16,CCC(C)(C)NC(=O)Cc1ccccc1OC,"inconclusive: 31.6 µM [inhibitor, partial curve, poor fit]"
17,CCCS(=O)(=O)NCCc1csc2nc(-c3ccc(OC)cc3)nn12,inactive
18,Cc1ncc(CO)c2c1Oc1nc(-c3ccccc3)nc(SCC(=O)Nc3cccc(O)c3)c1C2,"inconclusive: 50.1 µM [inhibitor, partial curve, poor fit]"
19,CCC(Sc1nc2ccsc2c(=O)n1Cc1ccc(C(=O)O)cc1)C(=O)Nc1cc(Cl)ccc1C (stereo unspecified),"inconclusive: 50.1 µM [inhibitor, partial curve]"

row,Compound,Potency
1,Oc1ccc(-c2csc(-c3cccnc3)n2)cc1O,active: 25.1 µM
2,O=C(Nc1ccc2oc(-c3ccc(Cl)c(Cl)c3)nc2c1)c1ncn[nH]1,"inconclusive: 2.24 µM [inhibitor, full curve, poor fit]"
3,O=C(CSc1ccc(Cl)cc1)Nc1cccc(-c2nc3ccccc3[nH]2)c1,"inconclusive: 20 µM [inhibitor, partial curve, poor fit]"
4,CCC(C(=O)NC1CCCC1)N(C(=O)Cn1nnc(-c2ccc(C)cc2)n1)C1CCCC1 (stereo unspecified),"inconclusive: 79.4 µM [inhibitor, partial curve, poor fit]"
5,O=C(CCl)N1c2ccccc2Sc2c1ccc1ccccc21,"inconclusive: 12.6 µM [inhibitor, partial curve, poor fit]"
6,COc1ccccc1/C(C)=N/NC(=S)NCc1ccccc1,"inconclusive: 89.1 µM [inhibitor, partial curve, poor fit]"
7,COc1ccc2c(c1OC)C(=O)OC2Nc1nc(-c2cc3ccccc3oc2=O)cs1 (stereo unspecified),"inconclusive: 11.2 µM [inhibitor, full curve, poor fit]"
8,N#Cc1cc2c(nc1SCc1ccccc1)CCCCC2,"inconclusive: 89.1 µM [inhibitor, partial curve, poor fit]"
9,Cc1nn(C)c(Cl)c1C(=O)NCC(=O)NCc1ccccc1,"inconclusive: 2.51 µM [inhibitor, partial curve, poor fit]"
10,O=S(=O)(c1ccc(F)cc1)N1CCN(CC2CC3C=CC2C3)CC1 (stereo unspecified),"inconclusive: 89.1 µM [inhibitor, partial curve, poor fit]"
11,O=C(N/N=C/c1sc(=O)[nH]c1-[n+]1ccc2ccccc2c1)c1ccccc1[O-],"inconclusive: 56.2 µM [inhibitor, partial curve, poor fit]"
12,COc1ccccc1C(=O)NC(CCSC)C(=O)OCC(=O)NC(=O)NCc1ccco1 (stereo unspecified),"inconclusive: 31.6 µM [inhibitor, single point]"
13,CC(=O)Nc1ccc(S(=O)(=O)/N=C2\C(=O)c3ccccc3C([O-])=C2n2cc[n+](-c3ccccn3)c2)cc1,"inconclusive: 56.2 µM [inhibitor, partial curve, poor fit]"
14,NS(=O)(=O)c1ccc(Nc2ccccc2)c([N+](=O)[O-])c1,"inconclusive: 35.5 µM [inhibitor, partial curve, poor fit]"
15,O=S(=O)(NC1=NCCCCC1)c1ccc2sc(NS(=O)(=O)c3ccc4ccccc4c3)nc2c1,"inconclusive: 79.4 µM [inhibitor, partial curve, poor fit]"
16,COc1cccc(Nc2ncnc3c2cnn3-c2cccc(C)c2)c1,"inconclusive: 100 µM [inhibitor, partial curve, poor fit]"
17,COCCc1nn2c(=O)cc(COC(=O)COc3ccccc3C)nc2s1,"inconclusive: 89.1 µM [inhibitor, single point]"
18,N#Cc1c(NC(=O)/C=C/C(=O)O)sc2c1CCN(Cc1ccccc1)C2,active: 28.2 µM
19,O=C(Nc1ccc(C(F)(F)F)cc1)C1CC(=O)N(c2ccc3c(c2)OCCO3)C1 (stereo unspecified),"inconclusive: 25.1 µM [inhibitor, partial curve, poor fit]"

row,Compound,Potency
1,C#CCn1cc(/C=N/NC(=O)COc2cccc3cccnc23)c2ccccc21,"inconclusive: 12.6 µM [inhibitor, full curve, poor fit]"
2,Cc1cc(NC(=S)N(Cc2ccc(Br)cc2)Cc2ccc(C(=O)O)cc2)ccc1Cl,"inconclusive: 89.1 µM [inhibitor, single point]"
3,O=C(N/N=C/c1ccccc1O)c1cccc(C(F)(F)F)c1,"inconclusive: 31.6 µM [inhibitor, single point]"
4,O=C(Nc1cccc(NC(=O)c2ccc(-c3ccc(Br)cc3)o2)c1)c1ccco1,"inconclusive: 35.5 µM [inhibitor, single point]"
5,CN1CCN(C2Cc3ccc(F)cc3Sc3cc(F)c(Cl)cc32)CC1 (stereo unspecified),"inconclusive: 89.1 µM [inhibitor, partial curve, poor fit]"
6,CCN1C(=O)[C@H]2[C@@H](c3ccc(-c4ccccc4)cc3)N3CCCC[C@@]3(C(=O)OC)[C@H]2C1=O,"inconclusive: 89.1 µM [inhibitor, partial curve, poor fit]"
7,O=c1cnc2ccccc2n1Cc1ccccc1C(F)(F)F,inactive
8,O=C(CSc1ncnc2sc3c(c12)CCCC3)c1ccco1,"inconclusive: 25.1 µM [inhibitor, partial curve]"
9,COc1nccnc1NS(=O)(=O)c1ccc(NC(=S)NC(=O)c2ccccc2)cc1,inactive
10,O=C(Cc1cccs1)Nc1nnc(SCc2ccc(F)cc2)s1,"inconclusive: 39.8 µM [inhibitor, single point]"
11,CC(NCC(=O)Nc1ccccc1C(=O)NC1CC1)c1ccc(F)cc1F (stereo unspecified),"inconclusive: 50.1 µM [inhibitor, partial curve, poor fit]"
12,O=C(N1CCCCCC1)N1CCN(C(=O)N2CCCCC2)CC1,"inconclusive: 79.4 µM [inhibitor, partial curve, poor fit]"
13,O=C(CCCSc1nc(-c2ccco2)cc(C(F)(F)F)n1)Nc1ccc2c(c1)OCO2,"inconclusive: 28.2 µM [inhibitor, partial curve, poor fit]"
14,CCC(=O)Nc1nonc1-c1nc2ccccc2n1N(C(=O)CC)C(=O)CC,"inconclusive: 35.5 µM [inhibitor, single point]"
15,CCC1(OC(=O)CN(C)C)C(=O)OCc2c1cc1n(c2=O)Cc2cc3c(N)cccc3nc2-1 (stereo unspecified),active: 7.94 µM
16,CC1(C)OC(=O)C(=Cc2ccc(-c3ccc(S(N)(=O)=O)cc3)o2)C(=O)O1,active: 50.1 µM
17,CCc1nnc(NS(=O)(=O)c2ccc(NC(=S)NC(=O)c3ccc(Br)cc3)cc2)s1,"inconclusive: 50.1 µM [inhibitor, partial curve]"
18,CCCc1cc(C(=O)N2CCN(C(c3ccccc3)c3ccccc3)CC2)no1,"inconclusive: 79.4 µM [inhibitor, partial curve, poor fit]"
